In PubChem BioAssay AID2675 (National Center for Advancing Translational Sciences (NCATS), 2010):
The whole screen tested about 280,000 compounds, of which about 100 (0.036%) were called active. The shares of active, inactive and inconclusive entries below differ from those in the screen. Calls follow the shape of the dose curve; as a rule, active = well fitted inhibition curve with a large enough effect in the signal ratio, with a control signal flat (not every such curve was filed as active); inconclusive = small, poorly fitted or top-dose-only effect, or effect the other way, or a change in a side signal; inactive = no such curve, though single readings can be large or run the other way; the % refers to the signal ratio. Where the call is inconclusive, the potency comes from a doubtful curve fit. A note “side channel” means that the fit belongs to a control or component signal, not to the main read-out.

Target: Muscleblind-like protein 1 (Homo sapiens) (UniProt Q9NR56)
Assay: qHTS Assay for Inhibitors of MBNL1-poly(CUG) RNA binding
Conditions: TR-FRET MBNL1-His/biotin-(CUG)12 binding, 665/545 ratio; series mostly up to 57.5 µM
Outline: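 Ratiometric TR-FRET (665 over 545 nm, excitation 340 nm) tracks disruption of MBNL1-His/biotin-(CUG)12 complex after 60 min at room temperature, with compounds at 92 nM to 58 uM final.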
Potency is read from the fitted curve at half-maximal effect; tags tell the direction and shape of the fitted curve or compound fluorescence and quenching.

Sequence of UniProt Q9NR56 (Q9NR56 whole entry, looked up): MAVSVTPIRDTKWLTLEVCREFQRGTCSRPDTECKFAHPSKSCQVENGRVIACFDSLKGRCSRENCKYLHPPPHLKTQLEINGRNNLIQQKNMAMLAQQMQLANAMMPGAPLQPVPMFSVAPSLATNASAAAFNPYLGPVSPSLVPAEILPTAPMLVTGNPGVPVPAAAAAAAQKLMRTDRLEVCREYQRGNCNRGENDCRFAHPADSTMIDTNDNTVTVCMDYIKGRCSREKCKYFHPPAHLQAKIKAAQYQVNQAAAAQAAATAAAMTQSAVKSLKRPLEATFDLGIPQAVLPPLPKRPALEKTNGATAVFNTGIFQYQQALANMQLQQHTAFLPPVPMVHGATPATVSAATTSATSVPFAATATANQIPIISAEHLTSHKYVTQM

Compound	Potency
CCOC(=O)c1c(C)[nH]c(C(=O)OCc2ccc(F)cc2)c1C	inconclusive: 31.6 µM [quencher, side channel, single point]
O=C(Nc1ccc(C(=O)N2CCOCC2)cc1)c1cccc([N+](=O)[O-])c1	inconclusive: 15.8 µM [quencher, side channel, partial curve]
O=C(NC1CCN(Cc2ccccc2)CC1)c1cccc(S(=O)(=O)Nc2cc(C(F)(F)F)ccc2Cl)c1	inconclusive: 0.891 µM [quencher, side channel, full curve, poor fit]
O=C(O)c1ccc2noc(-c3ccccc3)c2c1	inconclusive: 25.1 µM [quencher, side channel, single point]
O=C(Cc1ccccc1)NC1(O)C(=O)c2ccccc2C1=O	inconclusive: 20 µM [quencher, side channel, partial curve]
Cc1ccc(CCc2nnc(SCC(=O)Nc3ccccc3Cl)n2-c2ccccc2)o1	inconclusive: 3.16 µM [fluorescent, side channel, partial curve]
Oc1ccc(N=Cc2ccc(O)c(O)c2)cc1	inconclusive: 22.4 µM [quencher, side channel, single point]
COc1ccc(/C=C2\SC(=S)N(CC3CCCO3)C2=O)cc1 (stereo unspecified)	inactive
O=C(CSc1nc2ccc([N+](=O)[O-])cc2s1)NC1CCS(=O)(=O)C1 (stereo unspecified)	inconclusive: 8.91 µM [quencher, side channel, partial curve]
N#Cc1c(-c2ccc(Cl)cc2)ccn2nc(CCC(=O)O)nc12	inconclusive: 20 µM [quencher, side channel, partial curve]
OCCn1c(Cl)nc2ccccc21	inconclusive: 0.708 µM [quencher, side channel, partial curve, poor fit]
O=C(CSc1nnc(-c2cccc(Br)c2)o1)N1CCOCC1	inactive
O=C1C(NS(=O)(=O)c2ccccc2)=C(N2CCN(c3ccc(F)cc3)CC2)C(=O)c2ccccc21	inconclusive: 25.1 µM [quencher, partial curve]
O=C(CNC(=O)c1ccccc1)N/N=C/C=C/c1ccccc1	inconclusive: 39.8 µM [quencher, side channel, single point]
CCN1CCN(c2ccc(NC(=O)c3ccc([N+](=O)[O-])o3)cc2Cl)CC1	inconclusive: 7.94 µM [quencher, side channel, partial curve]
CN(C)/C=C1\C(=O)N(c2ccc([N+](=O)[O-])cc2)N=C1c1ccccc1	inconclusive: 28.2 µM [quencher, side channel, partial curve]
COc1ccc(/C=N/NC(=O)c2ccc(Cl)c(S(N)(=O)=O)c2)cc1OCC(N)=O	inconclusive: 31.6 µM [quencher, side channel, partial curve]
Cc1cc(C)nc(SCc2cn3c(C)cccc3n2)n1	inactive
CCN(CC)CCN1C(=O)C(=O)/C(=C(/O)c2ccc(S(=O)(=O)N3CCOCC3)cc2)C1c1ccc(C(C)(C)C)cc1 (stereo unspecified)	inconclusive: 22.4 µM [quencher, side channel, partial curve]
COc1ccc(-c2nc(-c3ccccc3)c(-c3cc([N+](=O)[O-])ccc3C)[nH]2)cc1O	inactive
Cc1ccc(Sc2ccc(NC(=O)CCl)cc2)cc1C	inactive

Compound	Potency
O=C(N/N=C/c1c[nH]c2ccccc12)c1ccc(O)c(O)c1	inconclusive: 15.8 µM [quencher, side channel, partial curve]
COc1ccc(C(=O)NCC(=O)N/N=C/c2ccc([N+](=O)[O-])o2)cc1OC	inconclusive: 12.6 µM [quencher, side channel, partial curve]
O=C(OCCN1C(=O)c2ccccc2C1=O)c1cccc(OC(F)F)c1	inactive
COc1ccc(CC(=O)Nc2nnc(SCC(=O)NCc3ccco3)s2)cc1OC	inconclusive: 35.5 µM [fluorescent, side channel, single point]
CCn1c(SCC(=O)N/N=C/C=C\c2ccccc2[N+](=O)[O-])nnc1-c1ccccc1	inconclusive: 15.8 µM [quencher, side channel, partial curve]
S=c1cnc2ccccc2[nH]1	inconclusive: 20 µM [quencher, side channel, partial curve]
O=S(=O)(O)c1ccc(N=NNc2ccc(Br)cc2)cc1	inconclusive: 7.94 µM [quencher, side channel, partial curve]
COC(=O)Cc1ccc(NC(=S)NCc2ccccc2OC)cc1	inactive
CCc1ccc(/C=C2\SC(=S)N(CCCC(=O)Nc3nccs3)C2=O)cc1	inconclusive: 0.1 µM [fluorescent, side channel, full curve]
CCOC(=O)c1cc2c(C)n(-c3ccc(OCC)cc3)c(C)c2ccc1=O	inconclusive: 12.6 µM [quencher, side channel, partial curve]
COc1cc(/C=N/n2nnnc2N)ccc1OC(C)C	inconclusive: 12.6 µM [quencher, side channel, partial curve]
CCOc1ccc(N/C=C/C(=O)c2cc(OC)c(OC)c(OC)c2)cc1	inconclusive: 28.2 µM [quencher, single point]
CN(/N=C/c1ccncc1)c1cnc2ccccc2n1	inconclusive: 2.24 µM [quencher, side channel, full curve]
N/C(=N\NC(=O)c1ccc(F)cc1)c1cc2ccccc2oc1=O	inconclusive: 8.91 µM [quencher, side channel, full curve, poor fit]
O=C(NNC(=O)c1cccs1)c1ccc([N+](=O)[O-])cc1	inconclusive: 4.47 µM [quencher, partial curve]
COc1ccc(CCNC(=O)c2cc3c(=O)n4ccccc4nc3n(CCCN3CCOCC3)c2=N)cc1OC	inconclusive: 14.1 µM [quencher, partial curve]
COc1ccccc1N1CCN(C(=O)c2ccc3c(Cl)c4c(nc3c2)CCCC4)CC1	inactive
O=C(COC(=O)c1cc([N+](=O)[O-])ccc1N1CCOCC1)c1ccccc1Cl	inconclusive: 25.1 µM [quencher, side channel, partial curve]
Cc1cc(=O)n(C)c(=O)n1CCCCOc1cccc([N+](=O)[O-])c1	inconclusive: 17.8 µM [quencher, side channel, partial curve]
O=C1NC(c2cccc([N+](=O)[O-])c2)Oc2ccccc21 (stereo unspecified)	inconclusive: 12.6 µM [quencher, side channel, partial curve]
O=C1c2ccccc2C(=O)c2c1cccc2N1CCCC1	inconclusive: 8.91 µM [quencher, side channel, partial curve]

Compound	Potency
O=C(NCCN1CCOCC1)c1ccc(Cl)cc1[N+](=O)[O-]	inconclusive: 17.8 µM [quencher, side channel, partial curve]
CCNC(=O)c1cc2c(=O)n3cccc(C)c3nc2n(CCc2ccccc2)c1=N	inconclusive: 11.2 µM [quencher, side channel, partial curve]
COC(=O)c1sccc1NC(=S)Nc1cccc(F)c1	inactive
CCOC(=O)C1C(=O)CC(C)(O)C(C(=O)OCC)C1c1cccs1 (stereo unspecified)	inactive
NS(=O)(=O)c1ccc(N2C(=O)C3CC=CCC3C2=O)cc1 (stereo unspecified)	inactive
Nc1c(C(=O)OCC2CCCO2)c2nc3ccccc3nc2n1-c1ccc2c(c1)OCCO2 (stereo unspecified)	inconclusive: 25.1 µM [quencher, partial curve]
COc1ccc(-c2csc(Nc3ccc(S(N)(=O)=O)cc3)n2)cc1OC	inconclusive: 20 µM [quencher, side channel, single point]
Cc1ccc2c(c1)N(CC(=O)NC1CCCCC1)C(=O)c1cccnc1O2	inactive
Cc1nc2ccc([N+](=O)[O-])cc2c(=O)n1Cc1cccc(Br)c1	inconclusive: 8.91 µM [quencher, partial curve]
N#C/C(=C\c1ccncc1)c1ccc(NC(N)=O)cc1	inconclusive: 15.8 µM [quencher, side channel, partial curve]
Cn1c2ccccc2c2nnc(SCC(=O)NC3CC3)nc21	inconclusive: 15.8 µM [quencher, side channel, partial curve]
CNC(=O)c1cc(Nc2nnc(-c3ccc(O)cc3)c3ccccc23)ccc1OC	inconclusive: 11.2 µM [quencher, side channel, partial curve]
CC(=O)c1ccc(NC(=O)C2=CC(c3ccc4c(c3)OCO4)=NS(=O)(=O)N2C)cc1	inconclusive: 14.1 µM [quencher, side channel, partial curve]
CCN(CC)C(=O)c1ccc(-c2nnc(Nc3ccc(C(=O)N(C)C)cc3)c3ccccc23)cc1	inconclusive: 15.8 µM [quencher, partial curve]
CCOc1cc(/C=C2/C(=N)N3OC(C)=CC3=NC2=O)ccc1OCCOc1ccccc1	inactive
CCCNC(=O)CS(=O)(=O)c1ccccc1	inactive
Cc1cccc(NC(=S)NCCc2ccccc2)c1C	inactive
CCN(CC)c1ccc(N=Cc2ccc([N+](=O)[O-])o2)cc1	inconclusive: 17.8 µM [quencher, partial curve]
C=CCNC(=O)/C(C#N)=C/c1c(N2CC(C)OC(C)C2)nc2ccccn2c1=O (stereo unspecified)	inconclusive: 12.6 µM [quencher, side channel, partial curve]
